# Measurements taken from PubChem BioAssay AID588855 (National Center for Advancing Translational Sciences (NCATS), 2011).
# “And” between values parts separate entries of the source, which are not always exact repeats. Identical values can stand only once. In all, about 410,000 compounds went through this assay and about 5,000 (1.2%) were called active. Inconclusive results, whose numbers are uncertain, are shown with a selection of clear calls. Calls come from the whole dose curve; as a rule, active = well fitted inhibition curve with a large enough effect; inconclusive = small, poorly fitted or top-dose-only effect; inactive = no such curve, though single readings can be large or run the other way. Potencies of inconclusive entries are doubtful fits and often do not repeat.
# Assay: qHTS for Inhibitors of TGF-b; note: nearly all actives have a fitted effect of over 65% in size
# Conditions: HepG2 CAGA-GFP TGF-b/SMAD3 reporter, GFP fluorescence, 18 h, TGF-beta stimulated, 500 pg/mL final; series mostly up to 46.1 µM
# How it was run: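 HEPG2 CAGA-GFP cells (1000/well, DMEM with 1% FBS) were pre-incubated 2 h at 37 degrees C, given compound by pin tool, then stimulated with TGF-beta at 500 pg/mL final for 18 h before per-cell GFP fluorescence imaging.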
# Potency is the fitted concentration of half-maximal effect; tags give direction and shape of the fitted curve.
row,Compound,Potency
1,O=C1c2cccc3c([N+](=O)[O-])ccc(c23)C(=O)N1O,inactive
2,CCN(CC(=O)Nc1ccc(NC(C)=O)cc1)C(=O)/C=C/c1cn(-c2ccccc2)nc1-c1ccc(F)cc1,"inconclusive: 5.62 µM [inhibitor, single point]"
3,CCOC(=O)C1CCN(C(=O)c2ccc3c(=O)n4nc(Nc5ccccc5CC)sc4nc3c2)CC1,"inconclusive: 10 µM [inhibitor, partial curve, poor fit]"
4,CCOc1ccc(C(=O)N(Cc2nc(-c3cccc(C)c3)no2)C(C)C)cc1,"inconclusive: 35.5 µM [inhibitor, single point]"
5,CCOP(=O)(OCC)c1nc(-c2cccc([N+](=O)[O-])c2)oc1N1CCCCC1,inactive
6,COc1ccc(/C=N\NC(=O)c2ccccc2[N+](=O)[O-])cc1COc1c(F)c(F)c(F)c(F)c1F,active: 8.91 µM
7,COc1ccc(CCC(C)N2CCC(Oc3ccc(C(=O)N4CCCC4)cc3)CC2)cc1 (centres undefined),"inconclusive: 35.5 µM [inhibitor, single point]"
8,Cn1sc(=O)c2cc(S(=O)(=O)NC3CC3)ccc21,"inconclusive: 15.8 µM [inhibitor, partial curve, poor fit]"
9,Cc1ccc(-c2nnc(SCC(=O)NC(C)(C)C)nc2-c2ccc(C)cc2)cc1,"inconclusive: 14.1 µM [inhibitor, partial curve]"
10,CN1CCc2c(sc(NC(=O)c3ccc(S(=O)(=O)N4CCCCCC4)cc3)c2C(N)=O)C1,inactive
11,Cc1ccc(-n2c(SCC(=O)Nc3cccc(S(N)(=O)=O)c3)nc3ccccc32)cc1,"inconclusive: 22.4 µM [inhibitor, single point]"
12,COc1ccc(OC)c(CNC(=O)C2CCN(S(=O)(=O)N3CCCC3)CC2)c1,"inconclusive: 6.31 µM [inhibitor, single point]"
13,Cc1ccc(Sc2ccc(N3CCCC(C(=O)Nc4ccc(F)cc4)C3)nn2)cc1 (centres undefined),"inconclusive: 11.2 µM [inhibitor, single point]"
14,COc1ccc(OC2CCN(S(=O)(=O)c3ccccc3)CC2)cc1,"inconclusive: 35.5 µM [inhibitor, single point]"
15,Cc1ccc([C@H]2C[C@H](n3cc(C4CC4)nn3)[C@@H](O)CN2CC2CCCCC2)cc1,"inconclusive: 25.1 µM [inhibitor, single point]"
16,Cc1nn(-c2ccc(N3CCCCC3)nn2)c(C)c1CCC(=O)NCc1ccccc1,"inconclusive: 35.5 µM [inhibitor, single point]"
17,O=C(c1cccc(S(=O)(=O)NCc2ccccc2)c1)N1CCN(c2ccccc2)CC1,"inconclusive: 35.5 µM [inhibitor, single point]"
18,O=S1(=O)CCOC[C@H](CC2CCCCC2)N1Cc1ccc(F)cc1,"inconclusive: 35.5 µM [inhibitor, single point] and inconclusive: 15.8 µM [inhibitor, single point]"
19,COc1cc(C2C(C(N)=O)=C(C)Nc3nc(CCCO)nn32)cc(OC)c1OC (centres undefined),"inconclusive: 3.16 µM [inhibitor, partial curve, poor fit]"
20,CC(N)c1csc(NC(=O)Nc2cccc(C(F)(F)F)c2)n1 (centres undefined),"inconclusive: 31.6 µM [inhibitor, single point]"
21,COC(=O)c1c(NC(C)=O)sc2c1CCN(Cc1ccccc1)C2,inactive
22,CCCn1cnnc1CNC(=O)[C@H]1O[C@@H](n2cnc3c(N)ncnc32)[C@H](O)[C@@H]1O,inactive

row,Compound,Potency
1,Cc1ccc(CN2CCN(/N=C/C(Br)=C\c3ccccc3)CC2)cc1,"inconclusive: 12.6 µM [inhibitor, partial curve, poor fit]"
2,CCC[C@@H](CN[C@@H](CNC)C(C)C)NCCCCc1ccccc1,"inconclusive: 35.5 µM [inhibitor, single point]"
3,O=C(NCc1cccs1)c1csc([C@@H]2C[C@H](O)[C@@H](CO)O2)n1,inactive
4,COc1ccccc1/C=C/c1nc2ccccc2[nH]1,inactive
5,COc1ccc2c(c1OC)C(=O)N1c3ccccc3C(=O)N(c3ccc(F)cc3)C21 (centres undefined),inactive
6,O=C(C[C@@H]1C/C=C/CC[C@H](Cc2ccc(F)cc2)C(=O)OC[C@@H](Cc2ccccc2)NC1=O)N[C@H](CO)Cc1ccccc1,"inconclusive: 11.2 µM [inhibitor, partial curve, poor fit]"
7,CN1C(=O)c2ccc(C(=O)Nc3ccc4c(c3)OCO4)cc2C1=O,inactive
8,CCOC(=O)CN1C(=O)N[C@@H](CCc2ccccc2)[C@H](C(=O)OC)[C@H]1C,inactive
9,CCOC(=O)C(C)Oc1cccc2c(=O)n(CC(=O)N3CCc4ccccc43)ccc12 (centres undefined),"inconclusive: 11.2 µM [inhibitor, single point]"
10,Cc1ccn2c(C=O)c(-c3ccc(F)cc3)c(C=O)c2c1,"inconclusive: 7.08 µM [inhibitor, partial curve]"
11,COC(=O)c1ccc(NC(=S)NCCc2ccccc2)cc1,"inconclusive: 35.5 µM [inhibitor, single point]"
12,O=C(COc1ccc(Cl)cc1Cl)Nc1c(-c2cccs2)nc2ccccn12,"inconclusive: 35.5 µM [inhibitor, single point]"
13,c1ccc(-c2nc(NCc3cccnc3)c3oc4ccccc4c3n2)cc1,"inconclusive: 25.1 µM [inhibitor, single point]"
14,CCOc1cc(S(=O)(=O)NCCc2c(C)[nH]c3ccc(C)cc23)ccc1F,"inconclusive: 22.4 µM [inhibitor, single point]"
15,C/C(=N\Nc1nc(C)c(C)s1)c1ccc([N+](=O)[O-])cc1,inactive
16,CCOc1cc(C(=O)OC(C)C(=O)Nc2ncc(Cl)cc2Cl)ccc1OCC(=O)N1CCOCC1 (centres undefined),"inconclusive: 14.1 µM [inhibitor, single point]"
17,Clc1cccc(Nc2nnc(-c3ccccc3)c3ccccc23)c1,inactive
18,CCC1(CC)NC(=O)N(CC(=O)OC(C)C(=O)Nc2ccc(Cl)cn2)C1=O (centres undefined),inactive
19,O=C(Nc1cccc(C(=O)OCc2cc(=O)n3c4c(sc3n2)CCCC4)c1)c1ccc(Cl)cc1,active: 10 µM
20,COc1cccc(OCc2cc(C(=O)N(Cc3ccccc3)CC3CC3)no2)c1,"inconclusive: 17.8 µM [inhibitor, single point]"
21,Cc1cc(C)c(S(=O)(=O)NCCn2c(C)cc3ccccc32)c(C)c1,"inconclusive: 22.4 µM [inhibitor, single point]"
22,C[C@@H]1CN([C@H](C)CO)C(=O)CCCn2nncc2CO[C@@H]1CN(C)C(=O)Nc1ccc(N2CCCCC2)cc1,inactive

row,Compound,Potency
1,O=C(NCCc1ccccc1)c1ccc(-c2ccccc2C(F)(F)F)o1,"inconclusive: 14.1 µM [inhibitor, partial curve, poor fit]"
2,CC1CN(c2nc3ccccc3nc2SCC(=O)Nc2ccc(F)cc2)CC(C)O1 (centres undefined),"inconclusive: 35.5 µM [inhibitor, single point]"
3,O=C(O)C1CCCCC1C(=O)Nc1cnn(Cc2ccccc2)c1 (centres undefined),"inconclusive: 11.2 µM [inhibitor, single point]"
4,O=C(Cn1cc(SCc2ccc(F)cc2)c2ccccc21)N1CCCCC1,"inconclusive: 2.82 µM [inhibitor, full curve, poor fit]"
5,CN(C)C1=NCCN1CCC1CCCC1,"inconclusive: 5.01 µM [inhibitor, single point]"
6,CCCN(CC1CC1)C(=S)NC(=O)c1cc(Br)ccc1Cl,inactive
7,Cc1nnc(N/N=C/c2ccccc2O)n1N,"inconclusive: 15.8 µM [inhibitor, single point]"
8,O=C(NCc1cccnc1)/C(=C/c1ccc(-c2ccc(Cl)cc2)o1)S(=O)(=O)c1ccccc1,"inconclusive: 10 µM [inhibitor, partial curve]"
9,COc1cc(C2C(C#N)=C(N)Oc3c2ccc2ccccc32)ccc1OCC(=O)Nc1ccc(C)cc1 (centres undefined),"inconclusive: 1.12 µM [inhibitor, full curve, poor fit]"
10,C=CC[n+]1c(-c2ccc(Cl)cc2Cl)csc1Nc1ccc(NC(C)=O)cc1,"inconclusive: 35.5 µM [inhibitor, single point]"
11,CCCC(=O)Nc1cccc(NC(=S)NC(=O)C(C)Oc2ccc(Cl)cc2Cl)c1 (centres undefined),"inconclusive: 22.4 µM [inhibitor, single point]"
12,COc1ccc2c(CNC3CCCCCC3)c(C(=O)O)n(Cc3ccc(C)cc3)c2c1,"inconclusive: 35.5 µM [inhibitor, single point]"
13,Cc1ccc(-c2noc(-c3cccnc3NCc3ccco3)n2)cc1,inactive
14,Cc1cc(F)ccc1NC(=O)Cn1nc(N2CCN(c3ccccc3)CC2)ccc1=O,"inconclusive: 35.5 µM [inhibitor, partial curve, poor fit]"
15,COc1ccc(-c2cc(OC(=O)c3ccccc3Cl)c3c(C)oc(C)c3c(=O)c2)cc1OC,"inconclusive: 22.4 µM [inhibitor, single point]"
16,CCOC(=O)c1c(C)c(C(=O)N2CCN(C(=O)c3ccco3)CC2)c(C)n1C,inactive
17,Oc1c(C(c2ccccc2Cl)N2CCC(O)CC2)sc2nc(-c3ccco3)nn12 (centres undefined),inactive
18,COc1ccc(C(=O)NCC(c2ccco2)N2CCc3ccccc3C2)c(OC)c1 (centres undefined),"inconclusive: 17.8 µM [inhibitor, single point]"
19,Cc1ccc(C)c(NC(=O)c2cc(S(=O)(=O)N3CCN(c4cccc(Cl)c4)CC3)ccc2F)c1,inactive
20,O=S(=O)(NNc1ccc(F)cc1F)c1cccc(Cl)c1,"inconclusive: 35.5 µM [inhibitor, single point]"
